91 sequences from the supplement of paper PMC10338343 can be followed below.

± gives the standard deviation. In all, about 3,000 sequences were measured (“pre-steady-state target cleavage rate”: median about 0.0079, highest 2% from about 0.2 on). Only a part is listed here, and it is no random draw.
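Further: 1 nM active piRISC with 0.1 nM target library at 33 °C single turnover.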

The test system of the assay is MILI (PIWIL2) piRISC loaded with piRNA #2 (26 nt). Nature of the assay: pre-steady-state target cleavage rate (min^-1); MIWI and MILI are mouse PIWI proteins and EfPiwi is from a freshwater sponge; tags in brackets are library labels; higher = faster piRNA-guided slicing of the target. The following applies: guide: piRNA #2 5'p-UUAGGUAACCCAGUAGAUCCAGAGGA; auxiliary factor: 500 nM mouse GTSF1. Summed up:
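A transcribed, DNA-blocked target RNA library […] was incubated at 33 °C for 0–8 or 0–960 min with 1 nM active affinity-purified piRISC carrying one synthetic guide, in HEPES–potassium acetate buffer with or without 500 nM GTSF1 partner protein. Uncleaved targets were then sequenced and normalised to depth and to weakly complementary targets. Data from three trials were pooled, with k3 capped at 0.0001 min^-1, and a burst-and-steady-state fit yielded the pre-steady-state cleavage rate.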
Take CUUAUCCUCUCGAUCUACUGGGUAACCUAA: the “pre-steady-state target cleavage rate” value worked out at 0.0833 ± 0.02.
For CUUAACCUCUGCAUCUACUGGGUUAGCUAA, the “pre-steady-state target cleavage rate” value amounted to 0.0731 ± 0.033.
The figure for CUUAAGCUCUGGUUCUACUGGGAUACCUAA is 0.0905 ± 0.038; for CUUAACCUCUGGAUCAACUGCGUUACCUAA it is 0.007 ± 0.0041.
Consider CUUAACCUCGUGGAUCUACUGGGUUACCUAA, for which the “pre-steady-state target cleavage rate” value was 0.0507 ± 0.024.
The figure for CUUAAGCUCUGGAACUACUGGGUUACCAAA is 0.0603 ± 0.017; for CUUAAGGACUGGAAGUACUGGGUUACCUAA it is 0.0144 ± 0.011.
As to CUUAACCUCUGGAUCUUGUGGGUUACCUAA, the “pre-steady-state target cleavage rate” value is 0.0204 ± 0.0087.
As for CUUAACCUCUCGAUCUACUGGGUAACCUAA, the “pre-steady-state target cleavage rate” value came to 0.0796 ± 0.017.
As to CUUAUCCUCUGGAUCUAGAGGGUUACCUAA, the “pre-steady-state target cleavage rate” value stood at 0.0653 ± 0.018.
In the case of CUUAACCUCGGGAUCUACUGGGUUACCUAA, the “pre-steady-state target cleavage rate” value stood at 0.077 ± 0.031.
Regarding CUUAAGGUUGGAUCUACUGGGUUACCUAA, the “pre-steady-state target cleavage rate” value worked out at 0.0237 ± 0.014.
Turning to CUUAACCUCUGGAUCUACUGGGAUACGUAA, the “pre-steady-state target cleavage rate” value turned out to be 0.00919 ± 0.0053.
Turning to CUUAACCUCUGGAUCUACUGGGUUAACUAA, the “pre-steady-state target cleavage rate” value amounted to 0.135 ± 0.025.
With CUUAAGGUCUGGUUCUACUGGGUAACCUAA, the “pre-steady-state target cleavage rate” value was determined as 0.011 ± 0.0078.
In the case of CUUAUCCUCUGGAUCAAGUGGGUUACCUAA, the “pre-steady-state target cleavage rate” value was found to be 0.0417 ± 0.0092.
The figure for CUUAAGGUCAGGAUCUUCUGGGUUACCUAA is 0.0121 ± 0.0079.
CUUAAGGAGAGAGAUCUACUGGGUUACCUAA: the “pre-steady-state target cleavage rate” value worked out at 0.00828 ± 0.0038.
CUUAAGGACUGGAUUUACUGGGUUACCUAA: the “pre-steady-state target cleavage rate” value was determined as 0.0377 ± 0.019.
For CUUAUCGUCUGGAUCUACUGGGUUUCCUAA, the “pre-steady-state target cleavage rate” value is 0.0411 ± 0.011.
On to CUUAUCCUCUGGAUUCUACUGGGUUACCUAA, for which the “pre-steady-state target cleavage rate” value turned out to be 0.12 ± 0.031.
The figure for CUUAAGCUCUGGUUCUAGUGGGUUACCUAA is 0.0926 ± 0.021.
For CUUAAGGUCUGGAUUACUGGGUUACCUAA, the “pre-steady-state target cleavage rate” value is 0.00675 ± 0.0055.
The figure for CUUAAGCUGUGGAUGUACUGGGUUACCUAA is 0.0455 ± 0.03; for CUUAAGCUCUGGACCUACUGGGUUACCUAA it is 0.0301 ± 0.013; for CUUAACCUCUGCAUCUACUGGGUAACCUAA it is 0.0645 ± 0.021.
With CUUAAGGAGACCUAGUACUGGGUUACCUA, the “pre-steady-state target cleavage rate” value was less than 0.0001.
In the case of CUUAUCCUCUGGAUCUACUGGGAAACCUAA, the “pre-steady-state target cleavage rate” value stood at 0.0949 ± 0.035.
Regarding CUUAAGCUCUGCAUCUACUGGGUAACCUAA, the “pre-steady-state target cleavage rate” value worked out at 0.0247 ± 0.0069.
The figure for CUUAACCUCUGGAUCUACUGGGUAACCAAA is 0.0211 ± 0.0092; for CUUAAGCUCUGGAUCUACUGGGAUACCAAA it is 0.0258 ± 0.0092; for CUUAUCGACUGGAUCUACUGGGUUACCUAA it is 0.0851 ± 0.018.
In the case of CUUAAGGUCUGGAUGUACUGGGUUACCUUA, the “pre-steady-state target cleavage rate” value stood at 0.0242 ± 0.016.
The figure for CUUAAGCUCUGGAACUACUGGGAUACCUAA is 0.0218 ± 0.01; for CUUAAGGUCUGGCAUCUACUGGGUUACCUAA it is 0.211 ± 0.069.
Regarding CUUAACCUCUCCUUCUACUGGGUUACCUAA, the “pre-steady-state target cleavage rate” value was 0.0862 ± 0.019.
On to CUUAAGGACUGGAUCUACAGGGUAACCUAA, for which the “pre-steady-state target cleavage rate” value was determined as 0.00684 ± 0.006.
Regarding CUUAAGGUCUGGAUCUACAGGGAUACCUAA, the “pre-steady-state target cleavage rate” value turned out to be 0.0548 ± 0.015.
With CUUAAGGUCUGGAUCUACUGGGUUGACCUAA, the “pre-steady-state target cleavage rate” value was determined as 0.045 ± 0.011.
Consider CUUAAGGUCUGGAUCUAUUGGGUUACCUAA, for which the “pre-steady-state target cleavage rate” value came to 0.094 ± 0.024.
Take CUUAUCCUCUGGAACUACUCGGUUACCUAA: the “pre-steady-state target cleavage rate” value came out at 0.00544 ± 0.0035.
Turning to CUUAAGGUCUGGAUCUACUGGGUAUACCUAA, the “pre-steady-state target cleavage rate” value is 0.0617 ± 0.012.
As to CUUAAGGUCUGGUUCUACUGGGUUAGCUAA, the “pre-steady-state target cleavage rate” value stood at 0.0165 ± 0.009.
In the case of “CUUAAGGAGAGGAUCUACUGGGUUACCUAU [g2:g20:cont:t1U]”, the “pre-steady-state target cleavage rate” value was 0.015 ± 0.0051.
As to CUUAAGGUCAGCAUCUACUGGGUUACCUAA, the “pre-steady-state target cleavage rate” value is 0.0206 ± 0.01.
In the case of CUUAACCUCUCGAUCUACUGGGUUUCCUAA, the “pre-steady-state target cleavage rate” value is 0.138 ± 0.035.
The figure for CUUAACCUCUGGAUCUACACGGUUACCUAA is 0.0116 ± 0.0037; for CUUAAGGACUGGAUCUACCGGGUUACCUAA it is 0.014 ± 0.0053; for CUUAUCCUCUGGAUCUACUGGGUUACCUAAA it is 0.122 ± 0.025.
With CUUAACGUCUGGAUCUACUGGGUUACCUAA, the “pre-steady-state target cleavage rate” value is 0.0954 ± 0.014.
Turning to CUUAAGGACUGGAUCUAAUGGGUUACCUAA, the “pre-steady-state target cleavage rate” value worked out at 0.0396 ± 0.012.
As for CUUAAGGAGUGGAUCUAGUGGGUUACCAAA, the “pre-steady-state target cleavage rate” value amounted to 0.00587 ± 0.0039.
Take CUUAUCCUCUGGAUCUACUGGGUUGACCUAA: the “pre-steady-state target cleavage rate” value is 0.132 ± 0.031.
On to CUUAUCCCUGGAUCUACUGGGUUACCUAA, for which the “pre-steady-state target cleavage rate” value was 0.12 ± 0.029.
Regarding CUUAUCCUCUGCUACUACUGGGUUACCUAA, the “pre-steady-state target cleavage rate” value turned out to be 0.0739 ± 0.016.
For CUUAUCAUCUGGAUCUACUGGGUUACCUAA, the “pre-steady-state target cleavage rate” value turned out to be 0.138 ± 0.019.
Regarding “CUUAUCCUCUGGAUCUACUGGGUUACCUAG [g2:g26:cont:t1G]”, the “pre-steady-state target cleavage rate” value came to 0.168 ± 0.036.
The figure for CUUAUCGUCUGGAUCUACUGGGUUACCAAA is 0.0225 ± 0.0083.
As to CUUAAGGAGUGGAUCUACUGGGUUAUCUAA, the “pre-steady-state target cleavage rate” value is 0.0175 ± 0.0069.
CUUAUCCUCUGGAUCUACUGGGUUAGCUAA: the “pre-steady-state target cleavage rate” value came out at 0.129 ± 0.025.
For the sequence CUUAAGGUGUGGAUGUACUGGGUUACCUAA, the “pre-steady-state target cleavage rate” value was 0.031 ± 0.021.
Consider CUUAAGGAGAGGAUCUACUGGGUUACCAA, for which the “pre-steady-state target cleavage rate” value was determined as 0.00467 ± 0.0033.
As for CUUAACCUCUGGAUCUACUGGGUUACCAA, the “pre-steady-state target cleavage rate” value turned out to be 0.165 ± 0.04.
On to CUUAAGGACUGGAUCUAGUGGGUUUCCUAA, for which the “pre-steady-state target cleavage rate” value was found to be 0.0193 ± 0.0062.
For CUUAAGGUCUGGAUCUACUGGGUUACCUA, the “pre-steady-state target cleavage rate” value was 0.11 ± 0.018.
CUUAAGGUCUGCAUCUUCUGGGUUACCUAA: the “pre-steady-state target cleavage rate” value came to 0.0399 ± 0.012.
As for CUUAAGGUCUGGAUCUACUGGGUUAACCUAA, the “pre-steady-state target cleavage rate” value stood at 0.0549 ± 0.013.
For CUUAAGGACACGAUCUACUGGGUUACCUAA, the “pre-steady-state target cleavage rate” value stood at 0.0133 ± 0.0059.
On to CUUAACCACUGGAUCUACAGGGUUACCUAA, for which the “pre-steady-state target cleavage rate” value stood at 0.0934 ± 0.012.
The figure for CUUAAGGAGAGGAUCUACUGGGUUACCAUAA is 0.00451 ± 0.0042; for CUUAACCUCUGGAUCUACUGGGUAACCUUA it is 0.114 ± 0.029; for CUUAAGGAGUGGAUCUACUAGGUUACCUAA it is 0.0262 ± 0.009.
The figure for CUUAAGGUCAGGAUGUACUGGGUUACCUAA is 0.0187 ± 0.013.
CUUAUCCUCUGGAUCAUGUGGGUUACCUAA: the “pre-steady-state target cleavage rate” value turned out to be 0.00734 ± 0.0034.
With CUUAUCCUCUGGAACAACUGGGUUACCUAA, the “pre-steady-state target cleavage rate” value stood at 0.0803 ± 0.021.
On to CUUAAGGUCUGGAUCAAGUGGGUUACCUAA, for which the “pre-steady-state target cleavage rate” value was found to be 0.0291 ± 0.0075.
The figure for CUUAAGGACUGGAACUACAGGGUUACCUAA is 0.0132 ± 0.01; for “CUUAAGGAGUGGAUCUACUGGGUUACCUAA [g2:g21:cont:t1A]” it is 0.0574 ± 0.015.
Consider CUUAAGAUCUGGAUCUACUGGGUUACCUAA, for which the “pre-steady-state target cleavage rate” value turned out to be 0.0959 ± 0.015.
Consider CUUAAGCUCUUGGAUCUACUGGGUUACCUAA, for which the “pre-steady-state target cleavage rate” value worked out at 0.143 ± 0.045.
The figure for CUUAACCUCUGGAUCUAAUGGGUUACCUAA is 0.0565 ± 0.0097.
On to CUUAAGGAGACCUAGAUGUUGGGUUACCUAA, for which the “pre-steady-state target cleavage rate” value was less than 0.0001.
On to CUUAAGGAGUGGAUCUACGGGGUUACCUAA, for which the “pre-steady-state target cleavage rate” value is 0.0548 ± 0.01.
On to CUUAAGGUCUGGAUCUACUGCGUUACCAAA, for which the “pre-steady-state target cleavage rate” value turned out to be 0.00469 ± 0.0031.
The figure for CUUAACCUCUCGAUCUAGUGGGUUACCUAA is 0.132 ± 0.023; for CUUAUCCUCUGGAUCAUCUGGGUUACCUAA it is 0.111 ± 0.036.
For CUUAAGCUCUGCAUCUACAGGGUUACCUAA, the “pre-steady-state target cleavage rate” value turned out to be 0.0554 ± 0.0093.
As to CUUAAGGACUGGAUCUUCUGGGUUACCUAA, the “pre-steady-state target cleavage rate” value is 0.0255 ± 0.016.
The figure for CUUAAGCUUCUGGAUCUACUGGGUUACCUAA is 0.0747 ± 0.019; for “CUUAAGGACUGGAUCUACUGGGUUACCUAA [g2:g22:cont:t1A]” it is 0.0428 ± 0.02.
The figure for CUUAAGGACUGGACUCUACUGGGUUACCUAA is 0.00833 ± 0.0081.
